Reference: the supplement of paper PMC11417369
Some of the results follow.

tested on: PfSIP2 AP2 domain 1 (GST-tagged); experiment: gcPBM binding intensity (ln(normalized median fluorescence intensity)); higher = stronger DNA binding
Method in brief: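 Binding of GST-tagged P. falciparum DNA-binding domains, expressed in E. coli and used at about 25 μg on average, was carried out for 1 h in 1× PBS containing 1% milk, 0.2 mg/ml BSA, 0.5% salmon testes DNA and 0.03% Triton X-100. The target was an Agilent 4 × 180k array of primer-extended double-stranded 36-bp intergenic genomic probes plus negative controls, read with Alexa488 anti-GST antibody at 488 nm. Binding intensity is the highest Masliner-normalised natural-log median intensity across replicate spots of either probe orientation.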

In order of falling “gcPBM binding intensity (ln)” value:
1. AAAAAAAAAAAAAGTGCACACGATTTAAGGCCTATA [CACACA_site2823]  10.9
2. TGTGAAATAAAATTTGTACACACATATATATATATA [CACACA_site8093]  9.6
3. ATATATATATATATATGTACACATATATTTCTTTTC [XGTACX_site3443]  9.58
4. ATATATAATTCCCAAGTGCATTTATTTTAATTATTA  8.9
5. TGTCCCCCTTTCTATGCACACTTTAAATTATTCAAA [CACACA_site4200]  8.53
6. ATTCCTGGACCGTTCATGCACTTGCAGAACGTCCAT  7.72
7. TTATATATAAATGAAAGTACAAAACAGGAAAGAATA [XGTACX_site1076]  7.64
8. GTTACACAAACAAACACACACACACGCACGCACAAA [CACACA_site7191]  7.54
9. TTTATTTTACAAAAAAGTACAAGAAGAAATATCAAT [XGTACX_site7812]  7.5
10. TTTATGAAATGTTGCACACAAAAAACAACATGTTTT [CACACA_site1440]  7.37
11. TTCTTCTGTTTTATTACACACCATTTTGTGTCTACA [CACACA_site8643]  7.31
12. TTTTTTATTATTATGTGTACGAATATGTGCATATAA [XGTACX_site1364]  7.31
13. AATACACGCAAACACACACACACACCCACATATATA [CACACA_site638]  7.27
14. ATGAATGAATAAAGAAGTACGGAAATATTAACAAAA [XGTACX_site4695]  7.26
15. ACCATTTGAAAATTCACACACTTTATTTTGTTATAT [CACACA_site5976]  7.25
16. CTCTATATATTATTATGTACTAAATGTATGTATGTA [XGTACX_site7151]  7.23
17. TCAATATACCAAAAATGTACAAAAAATAAACAATAT [XGTACX_site8251]  7.21
18. ATTGAAAAATAAAAATGTACACATGTAGCATACCAT [XGTACX_site3275]  7.19
19. ATAAAATTTTATATGGGTACATAATATAATATATAT [XGTACX_site8160]  7.19
20. TATGATTTTTATATATGTACGTATGGTGTTTTACAA [XGTACX_site6100]  7.19
21. TTTTTTCTCTATATATGTACATATAAAAAATATATC [XGTACX_site6382]  7.16
22. AAAAAAAAAATACATACACACACACCCACCCATATA [CACACA_site9187]  7.15
23. TAAAAAAAAAAAATGTGTACATATTATATATATCTT [XGTACX_site2615]  7.14
24. ATAACATACATAACAACACACAATATTTATCTGTAT [CACACA_site4279]  7.09
25. ATATATAATATATGTGGTACGCAAAATATTATATTA [XGTACX_site4969]  7.07
26. TATATAATATTACGTTGTACACTTTAATCTCCCTTC [XGTACX_site5577]  7.02
27. ACTAATATGCAATATTGTACATATATATAGAAATAT [XGTACX_site5273]  7
28. AATATATCGCATAGTTGTACAGAATTTTTACTTTTA [XGTACX_site8192]  7
29. TTTAAAAATTAATTCTGTACACATTTTTATTATATT [XGTACX_site4212]  6.99
30. AAAACACAATTTATTACACACATATATTATATATTA [CACACA_site1420]  6.98
31. TTCATTCAAATCCAAGCATGCTTTATTAAAAAATTA [TGCATGCA_site567]  6.96
32. TATAATCAATGCCAAAGTACATATTAATATATTTAT [XGTACX_site4558]  6.95
33. TTTTTTGACATTCCTTTTAATAATTAACGAAAGGCA [GTGCAC_negctrl_site377]  6.92
34. TAACACACTAAGAAAAGTACTGATTAATATAATTTT [XGTACX_site5536]  6.91
35. ATATTTAGAATGTTCCTACACACCAAATTTAAGTGG [CACACA_site2346]  6.9
36. AATGATATATTATAAACACACAAAGATGGATATATA [CACACA_site7349]  6.88
37. ATTAATCCAAATGAATGTACTTAATAATGTAATTAT [XGTACX_site8946]  6.87
38. TATTAAAAGTAAAAAACACACATGGATAAATACATA [CACACA_site6048]  6.87
39. GAACATTTCACATGGTGTACTCTCTTTTTCAAATAA [XGTACX_site1632]  6.87
40. AATAAATTTCAAAATTGTACTCATTTCCTTTCCCAA [XGTACX_site5887]  6.83
41. TATAACAAGTAATGTTGTACATTATATTATGTAATA [XGTACX_site2769]  6.8
42. TTTATATTATAATATAATAATGATCTTAATTTTTTT [XGTACX_negctrl_site100]  6.77
43. TACGCCTATAACGGCTGTACACCTTACTTTTTTTAA [XGTACX_site6818]  6.62
44. ATGAGTATACTAAGAACACACAAGTTACTTGGTGTT [CACACA_site4981]  6.62
45. AAATGATATAAATTATAAAATGGATTTTTTCCATTG [CACACA_negctrl_site420]  6.58
